Some of the results follow.
Each compound was assayed on T1, C. trachomatis L2/434/Bu expressing GFP (CTL2-GFP). Conditions: total inclusion area; 28.5 h, 10 µM; inhibitor.
T1 construct: L2/434/Bu GFP intracellular growth in HeLa cells
Design: species or system HeLa; C. trachomatis total inclusion area by high-content imaging, normalised to DMSO
Summary of the method: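 Imaging read-out: GFP inclusions and Hoechst nuclei captured by high-content imaging after fixation. Inclusion area/number = chlamydial growth; nuclei count = host cell viability. MIC calculated per earlier method.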
In the case of `O=c1sn(C2CCCCC2)c(=O)n1Cc1ccc(F)cc1` [CBK113604], the “% of control remaining” value is reported as 109.9.
For `O=C(O)CNS(=O)(=O)c1c(F)c(F)c(F)c(F)c1F` [CBK269986], the “% of control remaining” value was 63.5501.
For `C=CCNc1nc(NCCN2CCOCC2)nc(N2CCOCC2)n1` [CBK263074], the “% of control remaining” value was 102.135.
For `Cc1ccc(S(=O)(=O)N2CCSC2C(=O)O)cc1` (stereo not shown) [CBK286964], the “% of control remaining” value was 72.4061.
For `O=C(c1cncnc1)N1CC[C@H](c2nc3cc(F)ccc3[nH]2)C1` [CBK289376], the “% of control remaining” value was 101.659.
`COc1ccc2[nH]cc([C@@H]3CCC[C@H](NC(=O)C4CCCO4)C3)c2c1` (stereo partly shown) [CBK284699] was tested, and the “% of control remaining” value was 88.2312.
`O=C(O)c1ccccc1C(=O)N1CCN(Cc2ccc3c(c2)OCO3)CC1` [CBK074751] was tested, and the “% of control remaining” value was 73.2369.
With `Cc1ccc(C2(C(=O)N3CCCC3)CCN(S(=O)(=O)c3ccc(C)cc3)CC2)cc1` [CBK008752] the “% of control remaining” value was 98.5695.
`COc1ccccc1-c1cn2ccnc2c(Nc2cccc(Cl)c2)n1` [CBK066399] was tested, and the “% of control remaining” value was 149.619.
`CCOCCc1nsc(NS(=O)(=O)c2cccc(Cl)c2C)n1` [CBK034245] was tested, and the “% of control remaining” value was 70.0763.
`O=C(Cc1ccc(Cl)c(Cl)c1)NCCc1c[nH]c2ccc(Cl)cc12` [CBK159749] was tested, and the “% of control remaining” value was 90.3846.
In the case of `O=C(O)c1ccccc1C(=O)OCCN1CCOCC1` [CBK261462], the “% of control remaining” value is reported as 107.314.
In the case of `CCCCN(C)S(=O)(=O)NCCc1cn2ccccc2n1` [CBK304543], the “% of control remaining” value is reported as 111.234.
With `CN1CCN(c2ccccc2NC(=O)CSc2ccc(Cl)cc2)CC1` [CBK267941] the “% of control remaining” value was 87.188.
`C=CCNCc1cc2c(C)nn(-c3ccc(F)cc3)c2[nH]c1=O` [CBK283117] was tested, and the “% of control remaining” value was 70.9943.
For `C=CCn1cc(CN(CCN(C)C)Cc2ccc(C)o2)c(C)n1` [CBK282844], the “% of control remaining” value was 80.3687.
For `CCNS(=O)(=O)c1ccc(NS(=O)(=O)Cc2ccccc2)cc1` [CBK268257], the “% of control remaining” value was 103.224.
For `FC(F)(F)C1=NC(C(F)(F)F)=NP(N2CCOCC2)(N2CCOCC2)=N1` [CBK261042], the “% of control remaining” value was 89.2824.
With `Cc1ccc(-c2nccnc2OCCC(C)C)c(C)c1` [CBK106988] the “% of control remaining” value was 96.4444.
For `Cc1nc(C)c(C(=O)N2CCC(c3cc4cccnc4[nH]3)CC2)s1` [CBK284998], the “% of control remaining” value was 92.7797.
For `N#Cc1ccc(Cn2nc(NC(=O)c3ccco3)c3ccccc32)cc1` [CBK048260], the “% of control remaining” value was 99.2165.
In the case of `COc1cc2c(cc1OC)CN(C(=O)CSc1nc3c(c(-c4cccs4)c1C#N)CN(C)CC3)CC2` [CBK267462], the “% of control remaining” value is reported as 92.9588.
In the case of `O=[N+]([O-])c1cccc(-c2ccc(-c3nn4c(Cc5ccccc5)nnc4s3)o2)c1` [CBK267310], the “% of control remaining” value is reported as 96.6696.
`Cn1c(=O)n(CCN2CCOCC2)c(=O)c2c1nc1n2CCN1c1ccccc1` [CBK269328] was tested, and the “% of control remaining” value was 84.7662.
For `CCOC(=O)c1cnc(SCc2nc(N)nc(Nc3ccc(F)cc3)n2)nc1N` [CBK098477], the “% of control remaining” value was 82.7404.
In the case of `O=C1COc2ccccc2C/C=C/CC2(CCN(C(=O)CCc3cccnc3)CC2)CN1` [CBK292127], the “% of control remaining” value is reported as 77.888.
For `COc1ccc(C(=O)N2CC[C@H]3NC(=O)N(c4ccccc4)C(=O)[C@H]32)cc1` [CBK289281], the “% of control remaining” value was 82.2573.
For `COc1ccc(S(=O)(=O)N(C)CC(=O)N2CCN(Cc3ccccc3)CC2)cc1C` [CBK268221], the “% of control remaining” value was 86.2503.
For `O=C(Cn1nc(C(=O)O)c2ccccc2c1=O)NCc1ccc(Cl)cc1Cl` [CBK295320], the “% of control remaining” value was 95.3336.
`COC(=O)c1c(O)noc1C` [CBK023348] was tested, and the “% of control remaining” value was 79.4613.
With `CN(C)S(=O)(=O)NNC(=O)c1c[nH]c2ccccc12` [CBK267698] the “% of control remaining” value was 84.6964.
In the case of `O=S(=O)(NCCCn1ccnc1)c1cccs1` [CBK269912], the “% of control remaining” value is reported as 98.0019.
In the case of `CCc1cc2cc3c(cc2nc1SCC(=O)Nc1cccc(C(C)=O)c1)OCO3` [CBK108551], the “% of control remaining” value is reported as 107.527.
For `CCC(Oc1cc(C)ccc1Cl)C(=O)Nc1sccc1C(N)=O` (stereo not shown) [CBK268152], the “% of control remaining” value was 102.528.
In the case of `O=C(c1ccc(F)cc1)N1C[C@@H](c2ccsc2)[C@@H]2CN(Cc3ccccc3)CC[C@@H]21` [CBK285635], the “% of control remaining” value is reported as 86.0128.
`Cc1csc(C(Cc2ccsc2)NCC2=CCCOC2)n1` (stereo not shown) [CBK282439] was tested, and the “% of control remaining” value was 109.106.
For `CN(C)CCCC(=O)NCc1ccc(-c2csnn2)cc1` [CBK149288], the “% of control remaining” value was 111.618.
In the case of `O=C(Nc1ccc(CCO)cc1)c1cnc(-c2ccc(Cl)cc2)c(-c2ccco2)c1` [CBK037457], the “% of control remaining” value is reported as 98.2399.
In the case of `CCN(CC)C(=O)Cn1nc(C)n2c(cc3sc(C)cc32)c1=O` [CBK284064], the “% of control remaining” value is reported as 104.974.
For `Cc1c(O)cccc1Nc1cc(-c2cccc(N(C)C)c2)ncn1` [CBK036995], the “% of control remaining” value was 105.682.
With `COc1cc(C2C3=C(CC(C)(C)CC3=O)OC3=C2C(=O)CC(C)(C)C3)ccc1OCC(=O)O` [CBK262379] the “% of control remaining” value was 91.0401.
`Cc1ccc(C(C)(C)C)c(OC(=O)c2cnc(C)cn2)c1` [CBK090261] was tested, and the “% of control remaining” value was 113.87.
In the case of `CCCCOc1nccnc1-c1ccc(C)c(C)c1` [CBK106870], the “% of control remaining” value is reported as 95.2194.
`CC(C)[C@H](CO)Nc1nccnc1-c1ccccc1CO` [CBK037408] was tested, and the “% of control remaining” value was 84.702.
`O=C(Nc1ccc2[nH]c(=O)[nH]c2c1)c1ccc2[nH]ccc2c1` [CBK149083] was tested, and the “% of control remaining” value was 88.8573.
`CNC(=O)C1/C(=N\O)c2ccccc2N1C(C)=O` (stereo not shown) [CBK006569] was tested, and the “% of control remaining” value was 105.957.
With `Cc1nc(NCCc2cnc(=O)n(C)c2O)cc(C2CCOC2)n1` (stereo not shown) [CBK307559] the “% of control remaining” value was 74.5607.
For `CCN(CC)CC(C)C(O)(c1ccc(Cl)cc1)c1ccc(Cl)cc1` (stereo not shown) [CBK012146C], the “% of control remaining” value was 70.4295.
In the case of `Cc1ccc(NC(=O)c2cc(C)[nH]n2)c(C)n1` [CBK200387], the “% of control remaining” value is reported as 102.51.
With `O=C(Nc1nc2ccccc2s1)c1cnccn1` [CBK058664] the “% of control remaining” value was 57.8917.
With `CC(C)(C)C1CCc2c(sc(NC(=S)NC(=O)COc3ccccc3)c2C(N)=O)C1` (stereo not shown) [CBK268634] the “% of control remaining” value was 135.704.
In the case of `CC(C)[C@@H](CO)Nc1nc(-c2ccc(S(C)(=O)=O)cc2)cnc1N` [CBK063750], the “% of control remaining” value is reported as 128.6.

Source: article PMC12040169 (PLOS Biology, 2025)
